Laboratory results taken from PMC4336329 (PLoS ONE, 2015).
Among all 310,000 compounds or so, about 2,200 (0.71%) showed an effect of 50% or more. Effects have a minus sign here. The list shows a part of the results.

target: human ether-à-go-go-related gene (hERG) potassium channel (human, UniProt Q12809); assay: primary screen, population patch clamp on CHO cells stably expressing hERG
Sequence (Q12809 whole entry, looked up): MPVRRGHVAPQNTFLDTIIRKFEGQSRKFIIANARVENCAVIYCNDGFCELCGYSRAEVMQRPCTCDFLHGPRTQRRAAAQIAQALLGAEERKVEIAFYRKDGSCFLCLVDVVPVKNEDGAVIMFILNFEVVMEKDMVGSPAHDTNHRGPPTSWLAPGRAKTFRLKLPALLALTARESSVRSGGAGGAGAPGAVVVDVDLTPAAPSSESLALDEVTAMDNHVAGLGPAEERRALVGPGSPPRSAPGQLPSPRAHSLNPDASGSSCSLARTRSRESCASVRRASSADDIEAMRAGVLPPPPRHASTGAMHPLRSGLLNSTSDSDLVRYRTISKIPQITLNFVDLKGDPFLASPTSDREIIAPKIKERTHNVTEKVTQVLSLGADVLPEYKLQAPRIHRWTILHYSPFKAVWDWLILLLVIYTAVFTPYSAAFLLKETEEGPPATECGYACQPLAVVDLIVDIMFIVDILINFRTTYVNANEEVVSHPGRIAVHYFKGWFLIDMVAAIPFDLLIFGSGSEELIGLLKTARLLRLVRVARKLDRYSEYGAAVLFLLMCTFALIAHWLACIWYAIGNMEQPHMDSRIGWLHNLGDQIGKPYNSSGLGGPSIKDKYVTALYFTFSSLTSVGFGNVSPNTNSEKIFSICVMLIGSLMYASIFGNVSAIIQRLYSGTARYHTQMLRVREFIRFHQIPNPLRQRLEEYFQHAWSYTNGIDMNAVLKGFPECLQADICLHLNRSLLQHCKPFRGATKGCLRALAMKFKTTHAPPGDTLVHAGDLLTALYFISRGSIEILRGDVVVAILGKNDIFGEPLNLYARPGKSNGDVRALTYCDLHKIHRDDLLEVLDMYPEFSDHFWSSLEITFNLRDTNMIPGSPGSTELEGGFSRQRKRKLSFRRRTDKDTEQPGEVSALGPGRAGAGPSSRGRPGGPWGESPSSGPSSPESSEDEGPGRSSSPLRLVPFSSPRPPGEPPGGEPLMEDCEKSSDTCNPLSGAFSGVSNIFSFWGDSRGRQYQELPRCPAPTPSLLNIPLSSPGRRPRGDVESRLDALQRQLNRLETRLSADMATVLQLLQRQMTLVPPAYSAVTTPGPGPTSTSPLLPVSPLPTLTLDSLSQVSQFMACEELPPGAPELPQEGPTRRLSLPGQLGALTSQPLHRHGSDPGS

Going from `COc1cccc(OC)c1OCCCCCCN1CCN(C)CC1.Cl` to `CCCN1CCN(S(=O)(=O)c2ccc(OC)c(Br)c2)CC1`, the “hERG current change (%, negative = inhibition) at 1uM” value rises from 8.22% to 11.3%.

Going from `C1CCC2(CC1)C1=C(CCCC1)Nc1nnnn12` to `Cc1nc(SC2CC(=O)N(c3cc(Cl)cc(Cl)c3)C2=O)nc2c1CCCC2` (stereo not drawn), the “hERG current change (%, negative = inhibition) at 1uM” value rises from 3.72% to 11.8%.

Compared with `COc1ccc(NC(=O)C(CCSC)NC(N)=O)cc1NS(=O)(=O)c1ccc(F)cc1` (stereo not drawn), `N#CCC(=O)Nc1ccc(C(=O)Nc2cccc(S(N)(=O)=O)c2)cc1` is higher in “hERG current change (%, negative = inhibition) at 1uM” value: 12.5% for the first, 16.3% for the second.

First: CC(=O)NC1=NN(C(C)=O)C(C)(c2ccc(C)cc2)S1 (stereo not drawn)
Second: Cc1ccc(C(=O)N/C(=C/c2ccco2)C(=O)N2CCCCC2)cc1
The “hERG current change (%, negative = inhibition) at 1uM” value of the first is higher: 15.4% for the first, 4.07% for the second.

Going from `COc1ccc(C(=O)C2CCCN(Cc3cn[nH]c3-c3ccc(F)cc3)C2)cc1OC` (stereo not drawn) to `COc1ccc(C(=O)CSc2nnc(CN3CCCCC3)n2-c2ccc(F)cc2)cc1OC`, the “hERG current change (%, negative = inhibition) at 1uM” value rises from -25.9% to 13.6%.

Going from `Brc1cc2c(cc1/C=N/Nc1nc(N3CCOCC3)nc(N3CCOCC3)n1)OCO2` to `COC(=O)CSc1nc(C)cc(N2CCOCC2)n1`, the “hERG current change (%, negative = inhibition) at 1uM” value falls from 9.44% to 1.51%.

Compared with `COC(=O)c1sccc1N(C)S(C)(=O)=O`, `COC(=O)c1sccc1NC(=O)CC1C(=O)NCCN1C(=O)c1ccc(N(C)C)cc1` (stereo not drawn) is lower in “hERG current change (%, negative = inhibition) at 1uM” value: 14.9% for the first, 12.7% for the second.

First: O=C1CC(=O)Nc2cc(S(=O)(=O)N3CCN(c4cccc(C(F)(F)F)c4)CC3)ccc2N1
Second: COc1cccc(N2CCN(Cc3ccc(Cl)cc3)CC2)c1
The “hERG current change (%, negative = inhibition) at 1uM” value of the first is higher: 5.15% for the first, -4.01% for the second.

Compared with `CC1CCCN(CCCNC(=O)C2CC(=O)N(c3ccc(F)c(Cl)c3)C2)C1` (stereo not drawn), `COc1ccc(C(=O)C2CCCN(Cc3ccc(C#CCCO)cc3)C2)cc1F` (stereo not drawn) is lower in “hERG current change (%, negative = inhibition) at 1uM” value: 5.66% for the first, -2.54% for the second.

Going from `CC(C)c1ccc(-n2nc3ccc(N)cc3n2)cc1` to `Cc1ccc(CNS(=O)(=O)c2ccc(-n3cnnn3)c(C)c2)cc1`, the “hERG current change (%, negative = inhibition) at 1uM” value rises from 4.47% to 7.87%.

First: O=C(O)COc1ccccc1/C=C1\SC(=S)N(/N=C/c2ccccc2O)C1=O
Second: S=c1[nH]nc(-c2cccs2)n1/N=C/c1cn(-c2ccccc2)nc1-c1ccccc1
The “hERG current change (%, negative = inhibition) at 1uM” value of the first is higher: 22.4% for the first, 10.3% for the second.

First: Cc1oc2ccc(O)cc2c1C(=O)OC(C)C
Second: Cc1c(C(=O)OCC(=O)N2CC(=O)Nc3ccccc32)oc2ccc(Br)cc12
The “hERG current change (%, negative = inhibition) at 1uM” value of the first is higher: 8.39% for the first, -6.1% for the second.

Compared with `CCCNc1c(NC(=O)c2cccs2)c(=O)oc2ccccc12`, `CCCCC(=O)Nc1cccc2c1C(=O)N(c1ccccc1)C2=O` is lower in “hERG current change (%, negative = inhibition) at 1uM” value: 14.1% for the first, 4.56% for the second.

Going from `CCOC(=O)c1c(C)[nH]c(C(=O)N(C)Cc2cccc(OC)c2OC)c1C` to `COc1cc(CCC(=O)OCc2ccccc2C#N)cc(OC)c1OC`, the “hERG current change (%, negative = inhibition) at 1uM” value falls from 15.4% to 10.5%.

Going from `O=C(COc1ccccc1)Nc1ccc2c(c1)nc1n2CCSC1` to `COc1cccc(CC(=O)Nc2nc3ccccc3[nH]2)c1`, the “hERG current change (%, negative = inhibition) at 1uM” value rises from -3.52% to 1.88%.

Going from `COC(=O)CCC(=O)OC1(C)C(=O)C=C2C=C(c3ccsc3)OC=C2C1=O` (stereo not drawn) to `NC(=O)CCNC(=O)c1ccc(Cl)cc1`, the “hERG current change (%, negative = inhibition) at 1uM” value rises from 7.46% to 10.5%.

Going from `Cc1cc(C(=O)Nc2sc3c(c2C#N)CCC3)no1` to `Cc1c(OC(=O)CNC(=O)OC(C)(C)C)ccc2c3c(c(=O)oc12)CCC3`, the “hERG current change (%, negative = inhibition) at 1uM” value falls from 15.3% to 2.21%.

Going from `Cc1sc2nc(CSc3nnnn3-c3ccc(Cl)cc3)[nH]c(=O)c2c1C` to `Cc1nc2c(=O)n(-c3cccc(C(F)(F)F)c3)nc(C)c2s1`, the “hERG current change (%, negative = inhibition) at 1uM” value rises from 8.71% to 11.7%.

Compared with `CCc1ccc(NC(=O)CSc2nnc(C)c(=O)n2N)cc1`, `Cc1ccc(NC(=O)CSc2nnc(CNC(=O)c3ccco3)o2)cc1Cl` is lower in “hERG current change (%, negative = inhibition) at 1uM” value: 13.4% for the first, 5.5% for the second.

Compared with `Cc1cccc(-n2c(C)nc3ccsc3c2=O)c1`, `COc1ccc(-c2cc3nc(C)n(N)c(=O)c3s2)cc1` is lower in “hERG current change (%, negative = inhibition) at 1uM” value: 16.9% for the first, 10.2% for the second.

First: O=C(COc1cccnc1[N+](=O)[O-])Nc1cccc2ccccc12
Second: Cl.Fc1ccc(Nc2ncnc3ccccc23)cc1
The “hERG current change (%, negative = inhibition) at 1uM” value of the first is lower: 10.7% for the first, 13.3% for the second.

Going from `CCC(NS(=O)(=O)c1ccc(OC)cc1)C(=O)NCCC1=CCCCC1` (stereo not drawn) to `CCC(C(=O)NC1CCCC1)N(C(=O)c1snc(C(N)=O)c1N)c1ccc(OC)cc1` (stereo not drawn), the “hERG current change (%, negative = inhibition) at 1uM” value rises from 14.6% to 17%.

First: O=C(Cn1nnc2ccccc21)NNC(=S)NC1CCCCC1
Second: Clc1ccccc1Cn1nnc2ccccc21
The “hERG current change (%, negative = inhibition) at 1uM” value of the first is higher: 12.4% for the first, 6.7% for the second.

Compared with `Cc1nc2oc3c(NCc4ccccn4)ncnc3c2c2c1COC(C)(C)C2`, `CCSc1nc2c(c(=O)[nH]1)C(c1ccccn1)C1=C(CC(C)(C)CC1=O)N2` (stereo not drawn) is lower in “hERG current change (%, negative = inhibition) at 1uM” value: 4.58% for the first, 3.38% for the second.

Going from `CN1CCN(c2c[nH]c(=O)[nH]c2=O)CC1` to `CS(=O)(=O)Nc1ccc(C(=O)N2CCN(c3ccccc3F)CC2)cc1`, the “hERG current change (%, negative = inhibition) at 1uM” value falls from -4.58% to -69.2%.

First: CC1=C(C)CC(C(=O)NNC(=O)c2cccc(Cl)c2)C(C(=O)O)C1 (stereo not drawn)
Second: O=C(O)C1C2C=CC(C2)C1C(=O)Nc1cccc(F)c1 (stereo not drawn)
The “hERG current change (%, negative = inhibition) at 1uM” value of the first is lower: 11.1% for the first, 11.6% for the second.

Going from `CCN1C(=O)C(O)(CC(=O)c2ccc(-n3cccc3)cc2)c2ccccc21` (stereo not drawn) to `Br.CCCn1c(=N)n(CC(=O)c2ccc(Cl)cc2)c2ccccc21`, the “hERG current change (%, negative = inhibition) at 1uM” value falls from 0.704% to -8.59%.

Compared with `NC(=O)CSc1nnc(NC(=O)c2ccc(S(=O)(=O)N3CCCCC3)cc2)s1`, `N#CCCN(C(=O)COC(=O)c1ccc(S(=O)(=O)N2CCCCCC2)cc1)c1ccccc1` is higher in “hERG current change (%, negative = inhibition) at 1uM” value: -26.2% for the first, 8.64% for the second.

Going from `CCCCn1c(=O)[nH]c(=O)c2c1nc(-c1ccc(OC)c(Br)c1)n2CC(C)C` to `CCCc1cc(=O)[nH]c(SCC(=O)Nc2ccc(Br)cc2Br)n1`, the “hERG current change (%, negative = inhibition) at 1uM” value rises from 9.52% to 14.1%.

Compared with `O=C(Nc1c2c(nc3ccccc13)CCCC2)c1ccccc1F`, `Cc1c(NC(=O)C2(c3ccccc3)CCCC2)c(=O)n(-c2ccccc2)n1C` is higher in “hERG current change (%, negative = inhibition) at 1uM” value: 6.97% for the first, 10.8% for the second.

First: O=C(C[n+]1ccc2c(c1)nnn2-c1ccccc1)c1ccc(Cl)cc1.[Br-]
Second: Cc1ccc(-c2nc3ccccc3c(=O)n2N)cc1
The “hERG current change (%, negative = inhibition) at 1uM” value of the first is lower: -20.1% for the first, 12.3% for the second.

Going from `CC(C)(C)OC(=O)N1CC(O)CC1C(=O)OCC(=O)c1ccc(-c2ccccc2)cc1` (stereo not drawn) to `COC(=O)C1=C(c2cccc(OCc3ccccc3)c2)C[C@@H]2CC[C@H]1N2C(=O)NCc1ccc(N(C)C)cc1`, the “hERG current change (%, negative = inhibition) at 1uM” value falls from 11.6% to 11.1%.

Going from `Cc1cc(C)c2sc(N(CCCN(C)C)C(=O)c3ccc(S(=O)(=O)N4CCCc5ccccc54)cc3)nc2c1.Cl` to `CC(=O)N(CCc1ccccc1C)Cc1cc2cc(C)ccc2[nH]c1=O`, the “hERG current change (%, negative = inhibition) at 1uM” value rises from 8.3% to 19.2%.

Compared with `CC12CN3CC(C)(CN(C1)C3c1ccc(Cl)cc1Cl)C2=O` (stereo not drawn), `CC1=CC2=NC(=O)CC(C)(C(=O)N(CC(=O)NC3CCCC3)c3cc(C)cc(C)c3)N2C=C1` (stereo not drawn) is higher in “hERG current change (%, negative = inhibition) at 1uM” value: -0.613% for the first, 9.75% for the second.

First: COC(=O)CC1C(=O)NCCN1C(=S)Nc1ccccc1 (stereo not drawn)
Second: Cc1nc2c(ncn2-c2ccccc2)c(=O)n1NC(=O)CN1CCCCC1
The “hERG current change (%, negative = inhibition) at 1uM” value of the first is lower: 3.27% for the first, 8.42% for the second.

First: COc1ccc2nc(SCC(=O)c3ccco3)[nH]c2c1
Second: COc1cccc(CNC(=O)C2CCN(c3cnccn3)CC2)c1
The “hERG current change (%, negative = inhibition) at 1uM” value of the first is higher: 9.78% for the first, -0.588% for the second.

Compared with `Cc1ccc2nc(-c3cc(N)cc(N)c3)oc2c1`, `CC(C)C(=O)Nc1ccc(-c2nc3ncccc3o2)cc1` is lower in “hERG current change (%, negative = inhibition) at 1uM” value: 18.3% for the first, 6.84% for the second.

First: Cc1nn(C(C)C(=O)NCCCN(Cc2ccccc2)C(C)C)c(=O)c2c1sc1ccccc12 (stereo not drawn)
Second: Cc1cccc2c1cnn2C(=O)CCC(=O)NCc1ccc(F)cc1
The “hERG current change (%, negative = inhibition) at 1uM” value of the first is higher: 6.54% for the first, 0.609% for the second.

First: CCCC[C@@H]1CNCCN1CCCc1cc(OC)c(OC)c(OC)c1
Second: COc1ccc(C2C(C(=O)N3CCOCC3)CCC(=O)N2c2cc(OC)c(OC)c(OC)c2)cc1 (stereo not drawn)
The “hERG current change (%, negative = inhibition) at 1uM” value of the first is lower: 7.55% for the first, 14.9% for the second.

First: CC(C)CC(=O)NCCNC(=O)c1cc(OCC(F)(F)F)ccc1OCC(F)(F)F
Second: O=C(c1ccc(C(F)(F)F)cc1)C1CCCN(Cc2ccc(CO)o2)C1 (stereo not drawn)
The “hERG current change (%, negative = inhibition) at 1uM” value of the first is higher: 12.1% for the first, 3.1% for the second.

First: COc1ccc2[nH]c(C)c(CCN3CCC(=O)C(C)C3C)c2c1.Cl (stereo not drawn)
Second: CCCOc1cccc(OCCSc2nc(C)cc(=O)[nH]2)c1
The “hERG current change (%, negative = inhibition) at 1uM” value of the first is lower: -9.07% for the first, 3.99% for the second.

Compared with `CSC1=C(C#N)C(c2ccccc2Cl)C(C(=O)c2cccs2)C(O)(C(F)(F)F)N1` (stereo not drawn), `O=c1c2ccccc2oc2cc(OCc3ccc(F)cc3)cc(O)c12` is higher in “hERG current change (%, negative = inhibition) at 1uM” value: 1.01% for the first, 11.6% for the second.

First: CCN(CC)C(=O)c1cccc(C)c1
Second: OCc1cccnc1
The “hERG current change (%, negative = inhibition) at 1uM” value of the first is lower: 13.7% for the first, 15.5% for the second.

Compared with `CCOc1ccc(NC(=O)N(C2CCCC2)C2CCN(C(C)=O)CC2)cc1`, `OCCC1CN(Cc2cccn2-c2cccnc2)CCN1C1CCCCC1` (stereo not drawn) is lower in “hERG current change (%, negative = inhibition) at 1uM” value: 8.33% for the first, -6.64% for the second.

Going from `COCCOn1c(SCCOC)nc2ccccc2c1=O` to `N#Cc1ccc(N2CCCC2C(=O)O)c([N+](=O)[O-])c1` (stereo not drawn), the “hERG current change (%, negative = inhibition) at 1uM” value falls from 10.6% to 8.24%.
